Test results published in article PMC12136788.
Some of the results follow.

T1: UNK ZnF1-6 (called full-length) (human, UniProt Q9C0B0 30-357)
T1 sequence: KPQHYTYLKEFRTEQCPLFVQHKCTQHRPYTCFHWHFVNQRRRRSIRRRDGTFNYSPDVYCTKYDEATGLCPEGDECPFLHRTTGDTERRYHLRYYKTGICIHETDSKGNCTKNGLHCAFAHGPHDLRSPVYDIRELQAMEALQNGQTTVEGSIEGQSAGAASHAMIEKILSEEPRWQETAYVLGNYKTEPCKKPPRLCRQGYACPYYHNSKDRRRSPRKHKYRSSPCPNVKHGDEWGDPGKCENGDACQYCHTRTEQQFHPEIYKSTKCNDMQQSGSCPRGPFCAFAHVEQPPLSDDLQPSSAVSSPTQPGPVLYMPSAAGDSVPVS

B1: chr6:26414640:26414744:+|3pUTR|ENSG00000026950|unk|FALSE|unique (ssRNA)
RNA: GGGAGUUCUACAGUCCGACGAUCCAGGCAGAGCAAAUACCCUAGAGAUUCUCUGUGAUAUAGGAAAUUUGGAUGAAGGGAGCUAGAAGAAAUACAGGGAUUUUUUUUUUUUUUUAAGAUGGAGUCUUACUCUGUUGCUAGGCUCAACAGAGGAUUGAGCAUCA
B2: ENSG00000140564:stop:overlap|stop_codon|ENSG00000140564|stop_codon|NA|stop_codon (ssRNA)
RNA: GGGAGUUCUACAGUCCGACGAUCGCACGGCACACGGUGUGCGGGGGAAGUGGCUGCGGUGGCCAACAACGGUGUCUGUGGUGUAGGUGUGGCCUACAACGCCCGCAUUGGAGGGGUGCGCAUGCUGGAUGGCGAGGUGACAGACAACAGAGGAUUGAGCAUCA
B3: ENSG00000135018:stop:overlap|stop_codon|ENSG00000135018|stop_codon|NA|stop_codon (ssRNA)
RNA: GGGAGUUCUACAGUCCGACGAUCUAGCAACAGGAGGUGAUAUCAAUGCAGCUAUUGAAAGGUUACUGGGCUCCCAGCCAUCAUAGCAGCAUUUCUGUAUCUUGAAAAAAUGUAAUUUAUUUUUGAUAACGGCUCUUAAACUUUCAACAGAGGAUUGAGCAUCA
B4: chr17:81921741:81921842:-|3pUTR|ENSG00000197063|msi1|FALSE|unique (ssRNA)
RNA: GGGAGUUCUACAGUCCGACGAUCAAUUAUAUGUUUAAAAGUUAAAGAAAAAAGAGCUGCAGAGUAUUUAUAAAACUGUCUUUUAGAAAAAAAACAAGCAAGAAGACCAUUUGACCAUAUGAAUGGAAAAGGGAAGAAAGUAUACAACAGAGGAUUGAGCAUCA
B5: chr2:48962156:48962732:-|three_prime_utr|ENSG00000170820|control|control|control (ssRNA)
RNA: GGGAGUUCUACAGUCCGACGAUCUAUUCCUGGCAUACCUUUAAGGUAAAUUGGUCAGGAACUAUUAAUUCCAUGUGAUACAUUAGGAAGCUGAAUUAUUAGUAACAACAAUAAUAAUUAAAGAAUGCAAUACUGUAUUACAUACAACAGAGGAUUGAGCAUCA
B6: chr7:107760707:107760808:+|3pUTR|ENSG00000105879|unk|total|mutant (ssRNA)
RNA: GGGAGUUCUACAGUCCGACGAUCAAACAUGAAAUAUGCCGUAUGCAGAUAUCAUUUAUCCGACCGUUUGCCGUGUAUACAUUCCGAACAUACUUCUUUUGACAAAGGGUGAUCUGAUUGCUAAUUUACCAUUUUAUUCUGUCACAACAGAGGAUUGAGCAUCA

The binders below were run against T1, UNK ZnF1-6 (called full-length) (assay: nsRBNS (natural sequence RNA bind-n-seq); RBNS binding buffer (assumed for nsRBNS): 25 mM Tris pH 7.5, 150 mM KCl, 3 mM MgCl2, 0.01% Triton X-100, 500 ug/ml BSA, 20 U/ml SUPERase-In, 4 C; UNK is unkempt and MSI1 is Musashi-1; names of the RNAs are library labels; protein concentration not given here; high values mean tight binding).

Binder	binding signal
B1	4.98 enrichment R
B2	2.94 enrichment R
B3	0.495 enrichment R
B4	2.78 enrichment R
B5	0.574 enrichment R
B6	0.346 enrichment R
